Structures can show the parent of a compound that is named as a salt. Over roughly 2,000 compounds, “fractional viability relative to vehicle” has its median near 0.92; the lowest 2% begin near 0.11. Some of the results follow.
Tested on: TYKNU
Assay: fractional viability relative to vehicle; TYKNU is a high-grade serous ovarian cancer line; higher = less growth inhibition
Settings: 72 h, genotype: OPA1 knockout (sgOPA1 #2)
How it was run: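 Drug treatment lasted 72 h, with cells grown at 37 °C in 5% CO2 in RPMI 1640 supplemented with 10% FBS. Beforehand, TYKNU control cells or their lentiCRISPRv2 knockout derivatives had been seeded at 500 cells per well into drug-stamped 384-well plates carrying a ~2100-compound library at 2 or 10 μM, in duplicate. Viability came from Cell Titer Glo luminescence, with averaged duplicate treatment wells normalised to duplicate control wells in the same plate position.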

SMILES | fractional viability (2uM) | fractional viability (10uM)
COc1ccccc1OCC(O)CO (configuration not stated) [Guaifenesin] | 1.1 | 0.949
Cc1cc(=O)[nH]c(=S)[nH]1 [Methylthiouracil] | 1.07 | 1.08
CC(=O)[C@H]1CC[C@H]2[C@@H]3C=CC4=CC(=O)CC[C@@]4(C)[C@@H]3CC[C@]12C [Dydrogesterone] | 0.914 | 1.01
O=S(=O)(NCCSSCCNS(=O)(=O)c1cc(Cl)ccc1Cl)c1cc(Cl)ccc1Cl | 0.809 | 0.491
Cc1cc(/C=C/C#N)cc(C)c1Nc1ccnc(Nc2ccc(C#N)cc2)n1 [Rilpivirine] | 0.943 | 0.608
CCOc1cc2ncc(C#N)c(Nc3ccc(F)c(Cl)c3)c2cc1NC(=O)/C=C/CN(C)C [Pelitinib (EKB-569)] | 0.856 | 0.14
Cc1c(N(C)C)c(=O)n(-c2ccccc2)n1C [Amidopyrine] | 0.876 | 0.967
CCN(CC)CCNC(=O)c1c(C)[nH]c(/C=C2\C(=O)Nc3ccc(F)cc32)c1C [Sunitinib] | 0.713 | 0.148
CCN(CC)CCNC(=O)c1c(C)[nH]c(/C=C2\C(=O)Nc3ccc(F)cc32)c1C [Sunitinib Malate] | 0.862 | 0.5
COc1ccc(/C=C/C(=O)Nc2ccccc2C(=O)O)cc1OC [Tranilast] | 1.12 | 1.09
CCOC(=O)C1=C(COCCN)NC(C)=C(C(=O)OC)C1c1ccccc1Cl (configuration not stated) [Amlodipine] | 1.13 | 0.88
Cc1ncc(CCCN(C)C)cc1Nc1ncc2c(n1)-c1ccc(C(F)(F)F)cc1NC(=S)C2 | 0.693 | 0.572
Oc1ccc(/C=C/c2cc(O)cc(O)c2)cc1 [Resveratrol] | 1.03 | 0.976
CC(=O)c1cc2c(o1)C(=O)c1ccccc1C2=O [Napabucasin] | 0.0542 | 0.0318
CCN(CC)CC(=O)Nc1c(C)cccc1C [Lidocaine] | 1.06 | 0.994
c1ccc2c(CC3=NCCN3)cccc2c1 [Naphazoline HCl] | 1.06 | 0.835
CC(=O)OCC(=O)[C@@]12OC(C)(C)O[C@@H]1C[C@H]1[C@@H]3C[C@H](F)C4=CC(=O)C=C[C@]4(C)[C@@]3(F)[C@@H](O)C[C@@]12C [Fluocinonide] | 1.1 | 0.882
CC(C=CC(=O)NO)=CC(C)C(=O)c1ccc(N(C)C)cc1 (configuration not stated) [Trichostatin A (TSA)] | 0.335 | 0.298
CN(c1ccccc1CNc1nc(Nc2ccc3c(c2)CC(=O)N3)ncc1C(F)(F)F)S(C)(=O)=O | 0.728 | 0.523
Cc1ccc(S(=O)(=O)Cc2nc(-c3ccc(C(=O)NCc4cccnc4)cc3)oc2C)cc1 | 0.279 | 0.254
CC/C(=C(\c1ccc(O)cc1)c1ccc(OCCNC)cc1)c1ccccc1 [Endoxifen HCl] | 0.982 | 0.482
COc1cccc2c1C(=O)c1c(O)c3c(c(O)c1C2=O)C[C@@](O)(C(C)=O)C[C@@H]3O[C@H]1C[C@H](N)[C@H](O)[C@H](C)O1 [Daunorubicin HCl] | 0.568 | 0.108
CNC(=O)c1cc(Oc2ccc(NC(=O)Nc3ccc(Cl)c(C(F)(F)F)c3)cc2)ccn1 [Sorafenib Tosylate] | 0.843 | 0.637

SMILES | fractional viability (2uM) | fractional viability (10uM)
CNC(=O)c1cc(Oc2ccc(NC(=O)Nc3ccc(Cl)c(C(F)(F)F)c3)cc2)ccn1 [Sorafenib] | 0.784 | 0.543
CNC(=O)c1ccccc1Nc1cc(Nc2ccc(N3CCOCC3)cc2OC)ncc1C(F)(F)F | 0.696 | 0.465
OCc1ccccc1O[C@@H]1O[C@H](CO)[C@@H](O)[C@H](O)[C@H]1O [Salicin] | 1.02 | 0.976
C=CC1=C(C(=O)O)N2C(=O)[C@@H](NC(=O)/C(=N\O)c3csc(N)n3)[C@H]2SC1 [Cefdinir] | 0.982 | 0.852
CN1C(CCl)Nc2cc(Cl)c(S(N)(=O)=O)cc2S1(=O)=O (configuration not stated) [Methyclothiazide] | 0.816 | 0.913
CC(=O)NS(=O)(=O)c1ccc(N)cc1 [Sulfacetamide Sodium] | 1.01 | 1.03
Cc1cn([C@H]2C=C[C@@H](CO)O2)c(=O)[nH]c1=O [Stavudine (d4T)] | 1.19 | 1.07
C=C1CC[C@@H]2[C@](C)(CO)[C@H](O)CC[C@@]2(C)[C@@H]1C/C=C1/C(=O)OC[C@H]1O [Andrographolide] | 0.622 | 0.354
Cc1ncc(-c2ccnc(Nc3ccc(S(C)(=O)=O)cc3)n2)n1C(C)C | 0.256 | 0.363
N#Cc1ccc(-c2csc(NN=C3CCCC3)n2)cc1 [Remodelin] | 0.882 | 1.03
O=C(/C=C/c1ccc(O)cc1)c1ccc(O)cc1O [Isoliquiritigenin] | 1.03 | 0.85
CS(=O)(=O)OCCCCOS(C)(=O)=O [Busulfan] | 0.897 | 0.993
N#CCNC(=O)c1ccc(-c2ccnc(Nc3ccc(N4CCOCC4)cc3)n2)cc1 | 1.15 | 0.327
OCc1c[nH]c2ccccc12 [Indole-3-carbinol] | 1.08 | 1.14
CC(C)(CO)c1cc2cc(NC(=O)C3(c4ccc5c(c4)OC(F)(F)O5)CC3)c(F)cc2n1C[C@@H](O)CO | 0.884 | 1.04
Cc1c(CN2CCN(C(=O)[C@H](C)O)CC2)sc2c(N3CCOCC3)nc(-c3cnc(N)nc3)nc12 | 0.392 | 0.376
CN1CCc2c(c3ccccc3n2Cc2ccc(C(=O)NO)cc2)C1 [Tubastatin A HCl] | 0.907 | 0.841
CN1CCc2c(c3ccccc3n2Cc2ccc(C(=O)NO)cc2)C1 [Tubastatin A] | 0.869 | 0.846
CC[C@@H]1C(=O)OC[C@@H]1Cc1cncn1C [Pilocarpine HCl] | 0.826 | 0.786
COc1nc(OCc2cccc(-c3ccccc3)c2C)ccc1CNCCNC(C)=O [PD-1/PD-L1 inhibitor 2] | 0.912 | 0.487
CNc1cc(-c2cccc(Cl)c2Cl)nc(N)n1 | 0.476 | 0.368
CCC(C)(Oc1ccc(C2(c3ccc(OC(C)(CC)C(=O)O)cc3)CCCCC2)cc1)C(=O)O (configuration not stated) [Clinofibrate] | 0.938 | 0.887
C[C@@H](O[C@H]1OCCN(Cc2nn(P(=O)(O)O)c(=O)[nH]2)[C@H]1c1ccc(F)cc1)c1cc(C(F)(F)F)cc(C(F)(F)F)c1 [Fosaprepitant dimeglumine salt] | 1.02 | 0.832

— the supplement of paper PMC5919970
